Source: a protein production outcome set (Wang et al. 2014)

Test: label from the status in PepcDB records

Sequence	protein production
MANLDKYTETFKMGSNSTSTAEIYCNVTNVKFQYSLYATTYILIFIPGLLANSAALWVLCRFISKKNKAIIFMINLSVADLAHVLSLPLRIYYYISHHWPFQRALCLLCFYLKYLNMYASICFLTCISLQRCFFLLKPFRARDWKRRYDVGISAAIWIVVGTACLPFPILRSTDLNNNKSCFADLGYKQMNAVALVGMITVAELAGFVIPVIIIAWCTWKTTISLRQPPMAFQGISERQKALRMVFMCAAVFFICFTPYHINFIFYTMVKETIISSCPVVRIALYFHPFCLCLASLCCLLDPILYYFMASEFRDQLSRHGSSVTRSRLMSKESGSSMIG	failed
MAPTEPWSPSPGSAPWDYSGLDGLEELELCPAGDLPYGYVYIPALYLAAFAVGLLGNAFVVWLLAGRRGPRRLVDTFVLHLAAADLGFVLTLPLWAAAAALGGRWPFGDGLCKLSSFALAGTRCAGALLLAGMSVDRYLAVVKLLEARPLRTPRCALASCCGVWAVALLAGLPSLVYRGLQPLPGGQDSQCGEEPSHAFQGLSLLLLLLTFVLPLVVTLFCYCRISRRLRRPPHVGRARRNSLRIIFAIESTFVGSWLPFSALRAVFHLARLGALPLPCPLLLALRWGLTIATCLAFVNSCANPLIYLLLDRSFRARALDGACGRTGRLARRISSASSLSRDDSSVFRCRAQAANTASASW	failed
MIVGLGTDIAEIERVEKALARSGENFARRILTDSELEQFHASKQQGRFLAKRFAAKEAASKALGTGIAQGVTFHDFTISHDKLGKPLLILSGQAAELASQLQVENIHLSISDERHYAMATVILERR	not failed
MNTTSSAAPPSLGVEFISLLAIILLSVALAVGLPGNSFVVWSILKRMQKRSVTALMVLNLALADLAVLLTAPFFLHFLAQGTWSFGLAGCRLCHYVCGVSMYASVLLITAMSLDRSLAVARPFVSQKLRTKAMARRVLAGIWVLSFLLATPVLAYRTVVPWKTNMSLCFPRYPSEGHRAFHLIFEAVTGFLLPFLAVVASYSDIGRRLQARRFRRSRRTGRLVVLIILTFAAFWLPYHVVNLAEAGRALAGQAAGLGLVGKRLSLARNVLIALAFLSSSVNPVLYACAGGGLLRSAGVGFVAKLLEGTGSEASSTRRGGSLGQTARSGPAALEPGPSESLTASSPLKLNELN	failed
MPDTNSTINLSLSTRVTLAFFMSLVAFAIMLGNALVILAFVVDKNLRHRSSYFFLNLAISDFFVGVISIPLYIPHTLFEWDFGKEICVFWLTTDYLLCTASVYNIVLISYDRYLSVSNAVSYRTQHTGVLKIVTLMVAVWVLAFLVNGPMILVSESWKDEGSECEPGFFSEWYILAITSFLEFVIPVILVAYFNMNIYWSLWKRDHLSRCQSHPGLTAVSSNICGHSFRGRLSSRRSLSASTEVPASFHSERQRRKSSLMFSSRTKMNSNTIASKMGSFSQSDSVALHQREHVELLRARRLAKSLAILLGVFAVCWAPYSLFTIVLSFYSSATGPKSVWYRIAFWLQWFNSFVNPLLYPLCHKRFQKAFLKIFCIKKQPLPSQHSRSVSS	failed
MSLPNSSCLLEDKMCEGNKTTMASPQLMPLVVVLSTICLVTVGLNLLVLYAVRSERKLHTVGNLYIVSLSVADLIVGAVVMPMNILYLLMSKWSLGRPLCLFWLSMDYVASTASIFSVFILCIDRYRSVQQPLRYLKYRTKTRASATILGAWFLSFLWVIPILGWNHFMQQTSVRREDKCETDFYDVTWFKVMTAIINFYLPTLLMLWFYAKIYKAVRQHCQHRELINRSLPSFSEIKLRPENPKGDAKKPGKESPWEVLKRKPKDAGGGSVLKSPSQTPKEMKSPVVFSQEDDREVDKLYCFPLDIVHMQAAAEGSSRDYVAVNRSHGQLKTDEQGLNTHGASEISEDQMLGDSQSFSRTDSDTTTETAPGKGKLRSGSNTGLDYIKFTWKRLRSHSRQYVSGLHMNRERKAAKQLGFIMAAFILCWIPYFIFFMVIAFCKNCCNEHLHMFTIWLGYINSTLNPLIYPLCNENFKKTFKRILHIRS	not failed
MVPEPGPTANSTPAWGAGPPSAPGGSGWVAAALCVVIALTAAANSLLIALICTQPALRNTSNFFLVSLFTSDLMVGLVVMPPAMLNALYGRWVLARGLCLLWTAFDVMCCSASILNLCLISLDRYLLILSPLRYKLRMTPLRALALVLGAWSLAALASFLPLLLGWHELGHARPPVPGQCRLLASLPFVLVASGLTFFLPSGAICFTYCRILLAARKQAVQVASLTTGMASQASETLQVPRTPRPGVESADSRRLATKHSRKALKASLTLGILLGMFFVTWLPFFVANIVQAVCDCISPGLFDVLTWLGYCNSTMNPIIYPLFMRDFKRALGRFLPCPRCPRERQASLASPSLRTSHSGPRPGLSLQQVLPLPLPPDSDSDSDAGSGGSSGLRLTAQLLLPGEATQDPPLPTRAAAAVNFFNIDPAEPELRPHPLGIPTN	failed
